Source: the supplement of paper PMC11417369
The other results are listed elsewhere or left out.

tested on: PfAP2-HC AP2 domain (GST-tagged); assay: gcPBM binding intensity (ln(normalized median fluorescence intensity)); higher = stronger DNA binding
How it was run: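 An Agilent 4 × 180k array of primer-extended double-stranded 36-bp intergenic genomic probes, with negative controls, was incubated for 1 h with GST-tagged P. falciparum DNA-binding domains expressed in E. coli. Alexa488 anti-GST antibody detected bound protein, scanned at 488 nm. Binding intensity is the highest Masliner-normalised natural-log median intensity across replicate spots of either probe orientation.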

Sequence | gcPBM binding intensity (ln)
CCCACAATGGTTTATATACACACTGTTGCAAATTCT [CACACA_site3066] | 9.79
ATTGAAAAAATACAATGTACATAGTAATACAAAGAA [XGTACX_site4142] | 10
TTATAAAAAAAAAAAAAAAAAAAAACCAATATAATA [CACACA_negctrl_site968] | 9.43
TTTATTCTAAAATATTAAAAATGATTTGTTTTTTCA [CACACA_negctrl_site1751] | 9.25
GTATTATAAAAAGGAAGTACATATATACATATTATA [XGTACX_site1271] | 9.69
ATATGAACATTAAAAAAGTAAGGTATTCTCCCCTCT [CACACA_negctrl_site1299] | 9.71
ATAATTATACAAAAGCGTACACGATATAAATCTACG [XGTACX_site8115] | 9.76
CTTAAATCCATAATATGTACTTAAAAAGAAAAAATA [XGTACX_site4765] | 9.16
AGACAATTTTTTAGTACACACATATAGATATATAAA [CACACA_site6832] | 9.69
ATATATGTGTATGTATGTACTCATTTTTGTATATAT [XGTACX_site490] | 9.72
AAACAAAGAAAGAACACACATACACAATATACCTAC [CACACA_site2835] | 10.5
TTATATATTTATATTTGTACGTATAAATTTTTTTTT [XGTACX_site2833] | 9.7
TATTTTGAAAAAGTTGCACACAAAATTTAAAAAAAA [CACACA_site8470] | 9.69
CATTTAAATTATAAGTGTACACGATCATATTTCATC [XGTACX_site349] | 9.61
ATAATGATATATTATAAACACACAAAGATGAATATA [CACACA_site8914] | 9.9
TACATTCATGTGTATTGTACAAACTATTTTATAATA [XGTACX_site7744] | 9.56
TATATAATATATATAGTGCATAAGTTCAAAAGAATA [GTGCAC_site9805] | 9.82
GCATATTTTATAATTTTACACACCATATAAAATAAT [CACACA_site8904] | 9.67
TACATATTTTTTATGTGTACATATTTTTTATGTGTA [XGTACX_site443] | 9.65
ACAATCCTAACGACATGTACAAATATATATATTTTT [XGTACX_site7335] | 9.74
CCAACATTTTTTAGAAGTACATTTTTATATTTATTA [XGTACX_site5179] | 9.51
TATATATATATATATGTACACACATATATACCTTTC [CACACA_site8854] | 10.4

Sequence | gcPBM binding intensity (ln)
AAATAAAAACATAACAGTACAGTTAACATTTTTATA [XGTACX_site3479] | 9.64
AGGTACTTTTTTAAAACACACATATAATATATACAC [CACACA_site1065] | 9.75
GATGGAAGGTGAAAGCGTACTTATTATAGTAATATA [XGTACX_site303] | 9.61
TGTAATAATCTTACATGTACATACATATATTATATA [XGTACX_site4012] | 9.72
TTTTTTTTTTTTTCAAGTACATAACTTACCCCTTTT [XGTACX_site6207] | 9.22
TTATATGCATAAAAACGTACAAAAATGTATTCATGT [XGTACX_site2215] | 9.73
AGGATATGCAGACACACACACATATATATATATATA [CACACA_site2201] | 10.5
TTTTTTAATAATAGGAAAATGAATATTATATCGAAT [TGCATGCA_negctrl_site543] | 9.38
GTTATAGAAGCATTCACACACACACCCACATACACA [CACACA_site1465] | 11.2
AAACGATTACTGTGTACACACATAGTTATAAACATA [CACACA_site5195] | 10.1
GAATGTTAACGTTGCACACAAAAAAAAAGTATACAT [CACACA_site2415] | 9.94
TTACATAATATATGTACACACGCAAATACTTAGAAT [CACACA_site320] | 9.83
CATTTGATAAGATACACACACAAGGAAAAAAATAAA [CACACA_site350] | 10.7
TTATAATATCTATATATCTTTTACATTTATAAGTTT [CACACA_negctrl_site1473] | 9.62
TATAATAATATTAACACACGTACAAAAGCAAACAAC [CACACA_site3494] | 10.2
ATATATATATTCCACACACACACAAAAAAAAAAAAA [CACACA_site3648] | 10.6
TTTTTTTTTTTTTTTGCACACAGGGTGTAGGACAAG [CACACA_site2842] | 9.65
TATGGTGTAATTTAGTGTATTATATTATTTTGGTTG [GTGCAC_negctrl_site445] | 10
GTCTATTCAAAAAAGTGTACGGACATATAAACATAC [XGTACX_site6516] | 9.92
TTAGCTATGATATATACACACCAACGAACGAAGAAA [CACACA_site6657] | 9.79
TGCAGTCTGGAGAAAAGTACATAGTATCTGGTATCT [XGTACX_site2545] | 9.53
AGATATAGGAAAATAATATATATATATTTTTTTTTT [CACACA_negctrl_site461] | 9.57
